According to the supplement of paper PMC8728848:
This is one part of the list.

What was measured:
Assay in all cases: glycan array binding signal (z-score within array); higher = stronger binding
Conditions in all cases: glycan notation: IUPAC condensed, linker removed; mutation: Y228W
[1] = target: GlcNAc(a1-6)Gal(b1-4)GlcNAc
Summary of the method: (§1)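 Arrays were curated from the Consortium for Functional Glycomics database, 3228 in total, and kept only where the protein sequence was available. Binding is expressed as a within-array Z-score. This score was averaged across arrays of the same protein sequence at different concentrations or buffers and across linkers, and negative values can be read as non-binding.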

[2] = target: GlcNAc(b1-2)Gal(b1-3)GalNAc
Summary of the method: as §1

[3] = target: GlcNAc(b1-2)Man(a1-3)[GlcNAc(b1-2)Man(a1-6)]Man(b1-4)GlcNAc(b1-4)GlcNAc
Summary of the method: as §1

[4] = target: GlcNAc(b1-2)Man(a1-3)[GlcNAc(b1-2)Man(a1-6)]Man(b1-4)GlcNAc(b1-4)[Fuc(a1-6)]GlcNAc
Summary of the method: as §1

[5] = target: GlcNAc(b1-2)Man(a1-3)[GlcNAc(b1-4)][GlcNAc(b1-2)Man(a1-6)]Man(b1-4)GlcNAc(b1-4)GlcNAc
Summary of the method: as §1

[6] = target: GlcNAc(b1-2)Man(a1-3)[GlcNAc(b1-4)][GlcNAc(b1-2)Man(a1-6)]Man(b1-4)GlcNAc(b1-4)[Fuc(a1-6)]GlcNAc
Summary of the method: as §1

[7] = target: GlcNAc(b1-2)[GlcNAc(b1-4)]Man(a1-3)[GlcNAc(b1-2)Man(a1-6)]Man(b1-4)GlcNAc(b1-4)GlcNAc
Summary of the method: as §1

[8] = target: GlcNAc(b1-2)[GlcNAc(b1-4)]Man(a1-3)[GlcNAc(b1-4)][GlcNAc(b1-2)Man(a1-6)]Man(b1-4)GlcNAc(b1-4)GlcNAc
Summary of the method: as §1

[9] = target: GlcNAc(b1-2)[GlcNAc(b1-4)]Man(a1-3)[GlcNAc(b1-4)][GlcNAc(b1-2)[GlcNAc(b1-6)]Man(a1-6)]Man(b1-4)GlcNAc(b1-4)GlcNAc
Summary of the method: as §1

[10] = target: GlcNAc(b1-2)[GlcNAc(b1-4)]Man(a1-3)[GlcNAc(b1-4)][GlcNAc(b1-2)[GlcNAc(b1-6)]Man(a1-6)]Man(b1-4)GlcNAc(b1-4)[Fuc(a1-6)]GlcNAc
Summary of the method: as §1

[11] = target: GlcNAc(b1-2)[GlcNAc(b1-6)]Man(a1-6)[GlcNAc(b1-2)Man(a1-3)]Man(b1-4)GlcNAc(b1-4)GlcNAc
Summary of the method: as §1

[12] = target: GlcNAc(b1-2)[GlcNAc(b1-6)]Man(a1-6)[GlcNAc(b1-2)Man(a1-3)]Man(b1-4)GlcNAc(b1-4)[Fuc(a1-6)]GlcNAc
Summary of the method: as §1

[13] = target: GlcNAc(b1-2)[GlcNAc(b1-6)]Man(a1-6)[GlcNAc(b1-4)][GlcNAc(b1-2)Man(a1-3)]Man(b1-4)GlcNAc(b1-4)GlcNAc
Summary of the method: as §1

GlcNAc(b1-3)Fuc = target: GlcNAc(b1-3)Fuc
Summary of the method: as §1

GlcNAc(b1-3)Gal = target: GlcNAc(b1-3)Gal
Summary of the method: as §1

[14] = target: GlcNAc(b1-3)Gal(b1-3)GalNAc
Summary of the method: as §1

GlcNAc(b1-3)Gal(b1-4)Glc = target: GlcNAc(b1-3)Gal(b1-4)Glc
Summary of the method: as §1

[15] = target: GlcNAc(b1-3)Gal(b1-4)GlcNAc
Summary of the method: as §1

[16] = target: GlcNAc(b1-3)Gal(b1-4)GlcNAc(b1-2)Man(a1-3)[GlcNAc(b1-3)Gal(b1-4)GlcNAc(b1-2)Man(a1-6)]Man(b1-4)GlcNAc(b1-4)GlcNAc
Summary of the method: as §1

[17] = target: GlcNAc(b1-3)Gal(b1-4)GlcNAc(b1-2)Man(a1-3)[GlcNAc(b1-3)Gal(b1-4)GlcNAc(b1-2)Man(a1-6)]Man(b1-4)GlcNAc(b1-4)[Fuc(a1-6)]GlcNAc
Summary of the method: as §1

[18] = target: GlcNAc(b1-3)Gal(b1-4)GlcNAc(b1-2)[GlcNAc(b1-3)Gal(b1-4)GlcNAc(b1-6)]Man(a1-6)[GlcNAc(b1-3)Gal(b1-4)GlcNAc(b1-2)Man(a1-3)]Man(b1-4)GlcNAc(b1-4)GlcNAc
Summary of the method: as §1

[19] = target: GlcNAc(b1-3)Gal(b1-4)GlcNAc(b1-3)Gal(b1-4)GlcNAc
Summary of the method: as §1

[20] = target: GlcNAc(b1-3)Gal(b1-4)GlcNAc(b1-3)Gal(b1-4)GlcNAc(b1-2)Man(a1-3)[GlcNAc(b1-3)Gal(b1-4)GlcNAc(b1-3)Gal(b1-4)GlcNAc(b1-2)Man(a1-6)]Man(b1-4)GlcNAc(b1-4)GlcNAc
Summary of the method: as §1

[21] = target: GlcNAc(b1-3)Gal(b1-4)GlcNAc(b1-3)Gal(b1-4)GlcNAc(b1-2)Man(a1-3)[GlcNAc(b1-3)Gal(b1-4)GlcNAc(b1-3)Gal(b1-4)GlcNAc(b1-2)Man(a1-6)]Man(b1-4)GlcNAc(b1-4)[Fuc(a1-6)]GlcNAc
Summary of the method: as §1

[22] = target: GlcNAc(b1-3)Gal(b1-4)GlcNAc(b1-3)Gal(b1-4)GlcNAc(b1-2)[GlcNAc(b1-3)Gal(b1-4)GlcNAc(b1-3)Gal(b1-4)GlcNAc(b1-6)]Man(a1-6)[GlcNAc(b1-3)Gal(b1-4)GlcNAc(b1-3)Gal(b1-4)GlcNAc(b1-2)Man(a1-3)]Man(b1-4)GlcNAc(b1-4)[Fuc(a1-6)]GlcNAc
Summary of the method: as §1

[23] = target: GlcNAc(b1-3)Gal(b1-4)GlcNAc(b1-3)Gal(b1-4)GlcNAc(b1-3)Gal(b1-4)GlcNAc(b1-2)Man(a1-3)[GlcNAc(b1-3)Gal(b1-4)GlcNAc(b1-3)Gal(b1-4)GlcNAc(b1-3)Gal(b1-4)GlcNAc(b1-2)Man(a1-6)]Man(b1-4)GlcNAc(b1-4)GlcNAc
Summary of the method: as §1

[24] = target: GlcNAc(b1-3)Gal(b1-4)GlcNAc(b1-3)Gal(b1-4)GlcNAc(b1-3)Gal(b1-4)GlcNAc(b1-2)Man(a1-3)[GlcNAc(b1-3)Gal(b1-4)GlcNAc(b1-3)Gal(b1-4)GlcNAc(b1-3)Gal(b1-4)GlcNAc(b1-2)Man(a1-6)]Man(b1-4)GlcNAc(b1-4)[Fuc(a1-6)]GlcNAc
Summary of the method: as §1

[25] = target: GlcNAc(b1-3)Gal(b1-4)GlcNAc(b1-3)Gal(b1-4)GlcNAc(b1-3)Gal(b1-4)GlcNAc(b1-2)[GlcNAc(b1-3)Gal(b1-4)GlcNAc(b1-3)Gal(b1-4)GlcNAc(b1-3)Gal(b1-4)GlcNAc(b1-6)]Man(a1-6)[GlcNAc(b1-3)Gal(b1-4)GlcNAc(b1-3)Gal(b1-4)GlcNAc(b1-3)Gal(b1-4)GlcNAc(b1-2)Man(a1-3)]Man(b1-4)GlcNAc(b1-4)[Fuc(a1-6)]GlcNAc
Summary of the method: as §1

[26] = target: GlcNAc(b1-3)Gal(b1-4)GlcNAc(b1-3)Gal(b1-4)GlcNAc(b1-3)Gal(b1-4)GlcNAc(b1-3)Gal(b1-4)GlcNAc(b1-2)Man(a1-3)[GlcNAc(b1-3)Gal(b1-4)GlcNAc(b1-3)Gal(b1-4)GlcNAc(b1-3)Gal(b1-4)GlcNAc(b1-3)Gal(b1-4)GlcNAc(b1-2)Man(a1-6)]Man(b1-4)GlcNAc(b1-4)GlcNAc
Summary of the method: as §1

[27] = target: GlcNAc(b1-3)Gal(b1-4)GlcNAc(b1-3)Gal(b1-4)GlcNAc(b1-3)Gal(b1-4)GlcNAc(b1-3)Gal(b1-4)GlcNAc(b1-2)Man(a1-3)[GlcNAc(b1-3)Gal(b1-4)GlcNAc(b1-3)Gal(b1-4)GlcNAc(b1-3)Gal(b1-4)GlcNAc(b1-3)Gal(b1-4)GlcNAc(b1-2)Man(a1-6)]Man(b1-4)GlcNAc(b1-4)[Fuc(a1-6)]GlcNAc
Summary of the method: as §1

B1: Epa1-NP-mutant-Y228W (Candida glabrata), Q6VBJ0 (protein)
chain: MILNPALFLNKCVCIYTTLILLLLTNGGYATSSNDISLASKDPTTFPLGCSPDITTPKKGLSMELYSYDFRKKGSYPCWDAAYLDPNYPRTGYKSHRLLAKVDGVTGNINFYYHATKGCTPQLGHLPASYNYPKPLTMTNFTMLLYGYFRPKVTGFHTFTISADDLLFVNFGAGNAFDCCRRDSSADHFGNYQAYAIWGSKTAKDELTVHLDAGVYYPIRLFYNNREWDGALSFTFKTESNENTVSDFSEYFFSLDDTEEGCPGLISYDSSCASVKTSKIIGIDYHTETPNENLVPITKTIYHLGIPCTGTTTTPLCGSGFYDPLANKCVTINTSSTSSVTKTTSHTTSKEVSFHSSISSQKTLIPKSIPSPYGPIKSQSIPTEMETSSEISSSEYAFSDVISTPSHSPYTKKHSSLNSSSYTSTVIHSLTSYSISQGIFSTSLSEQNITSKSSTDKFSTATSMSNNITQSSIIISQFSTNNENYTTTSMHTSSDKISTETLNNSISTTTSILFSNSSTILKNNTTIISSDKDTHYHPVNPTIVCSTNKTEIICASITQPSISNSNNHWSSSVLKFNSTTVRSTLPSSAGSNETSINVPFSSSTESNTSTSSTSTSNSKMVRSTLPSSAGSNETSISVPFSSSTESNTSTSSTSTSNSKMVRSTLPSSAGSNETSINVPFSSSTESNTSTSSTSTSNSKTVRSTPFSSAGIIMTSLSQRNNKSASSYASSNSKCYNTADSCRKVHSTPSYLLTSSYTSEGVDYDCSLVSTKLKINDTNCVNNKHTTKSCLKTSVTTTIPTLEIKTARKSSSNTIGLHSYPTSSPNKSISSAPIIGYISSFKTIKTASPSYQTSDLTTITTITSLNNPGSTAVENTHESNDKSRKTSSNDISSKHSVIKETKDAVESSNKSHQTNTLKCSSIIIASSSHNSYESLGGTTLTLTLSKVYSPQNNDTLPFLEISEVNPSRTVLPESSKMMQYLTSTEERNKTARNTIATNIVSISTFHFEGEGNAIRMGYTQLLLMLIGIIVMNIGT
[1]
  glycan array binding signal (z-score): 0.416
[2]
  glycan array binding signal (z-score): -0.311
[3]
  glycan array binding signal (z-score): -0.079
[4]
  glycan array binding signal (z-score): -0.3
[5]
  glycan array binding signal (z-score): -0.224
[6]
  glycan array binding signal (z-score): -0.309
[7]
  glycan array binding signal (z-score): -0.038
[8]
  glycan array binding signal (z-score): -0.259
[9]
  glycan array binding signal (z-score): -0.384
[10]
  glycan array binding signal (z-score): -0.045
[11]
  glycan array binding signal (z-score): -0.333
[12]
  glycan array binding signal (z-score): -0.032
[13]
  glycan array binding signal (z-score): -0.347
GlcNAc(b1-3)Fuc
  glycan array binding signal (z-score): -0.242
GlcNAc(b1-3)Gal
  glycan array binding signal (z-score): -0.421
[14]
  glycan array binding signal (z-score): -0.024
GlcNAc(b1-3)Gal(b1-4)Glc
  glycan array binding signal (z-score): -0.087
[15]
  glycan array binding signal (z-score): -0.167
[16]
  glycan array binding signal (z-score): -0.088
[17]
  glycan array binding signal (z-score): 0.114
[18]
  glycan array binding signal (z-score): 0.255
[19]
  glycan array binding signal (z-score): -0.186
[20]
  glycan array binding signal (z-score): -0.022
[21]
  glycan array binding signal (z-score): 0.216
[22]
  glycan array binding signal (z-score): 0.065
[23]
  glycan array binding signal (z-score): -0.342
[24]
  glycan array binding signal (z-score): 0.23
[25]
  glycan array binding signal (z-score): 0.373
[26]
  glycan array binding signal (z-score): -0.251
[27]
  glycan array binding signal (z-score): -0.248
